In paper PMC4336329 (PLoS ONE, 2015):
The whole screen tested about 310,000 compounds, of which about 14,000 (4.5%) showed an effect of 50% or more. Effects have a minus sign here. The list shows a part of the results.

Each compound was assayed against human ether-à-go-go-related gene (hERG) potassium channel (human, UniProt Q12809) (assay: primary screen, population patch clamp on CHO cells stably expressing hERG).
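Further: peak tail current of the secondary pulse compared with the same well before compound.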

Sequence of human ether-à-go-go-related gene (hERG) potassium channel (Q12809 whole entry, looked up): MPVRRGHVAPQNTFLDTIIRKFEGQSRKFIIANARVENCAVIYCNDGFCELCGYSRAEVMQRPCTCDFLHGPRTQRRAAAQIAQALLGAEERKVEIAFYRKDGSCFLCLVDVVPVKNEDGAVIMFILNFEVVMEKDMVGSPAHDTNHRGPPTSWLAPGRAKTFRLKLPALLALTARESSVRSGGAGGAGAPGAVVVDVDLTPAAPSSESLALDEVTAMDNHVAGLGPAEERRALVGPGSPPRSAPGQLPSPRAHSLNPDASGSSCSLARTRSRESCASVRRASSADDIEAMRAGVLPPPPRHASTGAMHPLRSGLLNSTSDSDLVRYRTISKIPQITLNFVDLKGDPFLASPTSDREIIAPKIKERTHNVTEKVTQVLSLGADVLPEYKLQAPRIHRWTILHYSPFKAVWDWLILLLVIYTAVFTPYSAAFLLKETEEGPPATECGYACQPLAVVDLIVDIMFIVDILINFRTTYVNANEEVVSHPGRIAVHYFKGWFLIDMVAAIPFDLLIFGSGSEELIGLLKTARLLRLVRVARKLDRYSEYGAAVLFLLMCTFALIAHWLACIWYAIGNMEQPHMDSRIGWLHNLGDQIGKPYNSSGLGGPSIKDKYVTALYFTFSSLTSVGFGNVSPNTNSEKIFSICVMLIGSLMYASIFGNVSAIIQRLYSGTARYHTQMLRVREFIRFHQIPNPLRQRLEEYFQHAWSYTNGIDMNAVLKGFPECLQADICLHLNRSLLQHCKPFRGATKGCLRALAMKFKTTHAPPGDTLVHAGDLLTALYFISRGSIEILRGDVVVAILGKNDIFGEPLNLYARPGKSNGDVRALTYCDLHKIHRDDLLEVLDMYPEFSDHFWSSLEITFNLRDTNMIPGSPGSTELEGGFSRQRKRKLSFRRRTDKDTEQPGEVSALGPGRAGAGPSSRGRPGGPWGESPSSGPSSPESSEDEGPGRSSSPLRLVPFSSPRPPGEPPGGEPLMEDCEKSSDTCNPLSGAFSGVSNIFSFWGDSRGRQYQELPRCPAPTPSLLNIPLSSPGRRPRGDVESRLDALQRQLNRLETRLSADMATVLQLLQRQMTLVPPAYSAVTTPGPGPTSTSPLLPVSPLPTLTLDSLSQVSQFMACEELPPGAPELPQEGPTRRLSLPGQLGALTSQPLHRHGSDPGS

SMILES	hERG current change (%, negative = inhibition) at 10uM
CC1Nc2ccc(C(=O)NC3CCCCC3)cc2NC1=O (stereo not shown)	25.7%
C/C(=N\N1CCCCCC1)c1c(O)n(-c2ccc(C)cc2)c(=O)[nH]c1=O	7.88%
CCOc1ccc(C(C)=O)cc1CSC(=N)N.Cl	16.2%
Cc1ccccc1CNC(=O)CN(c1cccc([N+](=O)[O-])c1)S(C)(=O)=O	6.08%
CCOc1ccccc1NC(=O)c1cc(S(=O)(=O)N2CCOCC2)ccc1C	-7.75%
CCN1CCN(C(CNS(=O)(=O)c2ccc(F)cc2)c2cccnc2)CC1 (stereo not shown)	-20.5%
CCC(C)NC(=O)C1CC(c2cccc(OC)c2)=NO1 (stereo not shown)	8.15%
CCn1c(=O)cc(SCC(=O)NCCC2=CCCCC2)c2ccccc21	-6.46%
COc1ccc(CNCc2cccc3ccccc23)cc1.O=C(O)C(=O)O	-47.1%
COC(=O)c1onc(-c2c(C)cc(C)cc2C)c1C(=O)OC	11.8%
O=c1c2cc(NC(=S)N3CCC(N4CCCCC4)CC3)ccc2nc2n1CCCCC2	-3.94%
COc1cccc(NC(=O)CSc2nnc(CN3CCOCC3)n2C)c1	-6.64%
C=CCn1c(Oc2ccccc2)nc2c1c(=O)n(C)c(=O)n2C	5%
Nc1c(C(=O)O)sc2nc(-c3ccccc3)c3c(c12)CCCC3	11.6%
Cn1c(=O)c2c(nc(NC3CCCC3)n2C)n(C)c1=O	3.12%
COc1cc(OC)c(C2=NOC(C(=O)Nc3cc(C)nn3-c3ccccc3)C2)cc1Cl (stereo not shown)	-24.5%
CCOC(=O)C1=C(c2ccccc2)NC(SCC(N)=O)=C(C#N)C1c1cccnc1 (stereo not shown)	-9.62%
Cc1ccc(C(=O)CCC(=O)Nc2ccccc2C)cc1C	15%
Cc1ccccc1C(=O)N1CCc2cc(-c3nc(NC(=O)Cc4ccc5c(c4)OCO5)sc3C)ccc21	3.97%
COc1ccc(CNC(=O)C2CC(C)=C(C)CC2C(=O)O)cc1 (stereo not shown)	1.08%
CC1CCCC(C)N1C(=O)CN1C(=O)c2ccccc2S1(=O)=O (stereo not shown)	3.3%
CN(C)CCCNC1=CC(=O)OC12CCCCC2	-5.19%

SMILES	hERG current change (%, negative = inhibition) at 10uM
CC1CN(S(=O)(=O)c2cccc(-c3cn4ccccc4n3)c2)CC(C)O1 (stereo not shown)	-11%
Nc1nc(-c2ccc(F)cc2)cc(C(F)(F)F)n1	18.7%
O=C(Nc1ccc(NC(=O)c2cccs2)cn1)c1ccccc1	11.7%
O=C(COC(=O)/C=C/c1ccccc1[N+](=O)[O-])NC1CC1	13.1%
CNC(=S)Nc1cccc(Cl)c1C	13.9%
Cc1cc2oc(=O)cc(CN(C)Cc3cccc(F)c3)c2cc1Cl	10.8%
O=C(CCN1CCN(c2ccccc2)CC1)Nc1ccc2c(c1)OCO2	-35.8%
O=C(Nc1ccccc1)c1n[nH]c(Cn2cncn2)n1	-8.58%
CCOC(=O)C1=C(C)N(CC)C(=S)NC1c1ccc(Cl)cc1 (stereo not shown)	-9.13%
COc1cc(NC(=O)CSc2nccc(C)n2)c(C(=O)O)cc1OC	-17.5%
Cc1[nH]c2ccccc2c1CCN(Cc1cccnc1)C(=S)Nc1ccc(F)cc1	-33.4%
CCOCCCN1C(=O)C(=O)N(CC(=O)N2c3ccccc3NC(=O)CC2C)C1=O (stereo not shown)	17.2%
Cc1ccc2c(Cl)cc(Cl)c(OCC(=O)Nc3ccc(C)c(S(=O)(=O)N(C)C)c3)c2n1	-22.3%
O=C(CCN1C(=O)/C(=C/c2ccc(F)cc2)SC1=S)NC1CCS(=O)(=O)C1 (stereo not shown)	-6.33%
O=C1/C(=C/C=C/c2ccco2)SC(=S)N1c1ccc(O)cc1	-0.674%
Cc1cccc(CS(=O)(=O)Cc2ccc(C(=O)NCCN3CCCCC3C)o2)c1 (stereo not shown)	-19.4%
Cc1scc(C(=O)NNC(=S)NCC2CCCO2)c1C (stereo not shown)	-16.7%
COc1ccc(C(=O)OCc2nnc(-c3ccccc3)o2)cc1S(=O)(=O)N1CCOCC1	-29.4%
CCN(C(=O)COC(=O)c1cc(-c2ccc(C)o2)nc2ccccc12)C1CCS(=O)(=O)C1 (stereo not shown)	-66.7%
NS(=O)(=O)c1cccc(NC(=O)CSc2nc3ccc(Cl)cc3[nH]2)c1	-2.83%
C=CCNC(=S)Nc1cccc(NC(=S)NCC=C)c1	1.6%
CCC(C)Sc1ccc([C@@H]2[C@H]3C(=O)N(CC)C(=O)[C@H]3[C@]3(C(=O)OC)CCCCN23)cc1.O=C(O)C(F)(F)F (stereo partly shown)	14.1%

SMILES	hERG current change (%, negative = inhibition) at 10uM
COc1ccc(CNc2ncnc3cc(OC)c(OC)cc23)cc1	-3.69%
CCOc1ccc(N(CC(=O)NCCc2ccc(C)cc2)S(=O)(=O)c2c(C)noc2C)cc1	19.5%
Cc1ccc(-n2[nH]c(C)c(/C=N/c3cccc(C)n3)c2=O)cc1	2.26%
CN(C)CCCN1C(=O)c2cccc3cccc(c23)C1=O	-16%
COc1ccc(C(=O)NC(=S)NC2CCCCC2)cc1	-0.0729%
CCCC1(CCC)NC(=O)N(CC(=O)Nc2cccc(OC)c2)C1=O	3.28%
CNc1nc2c(c(=O)n(C)c(=O)n2C)n1Cc1ccccc1	0.607%
Cc1cccc(C)c1OCCn1nc(C(=O)O)c2ccccc2c1=O	9.53%
Cc1cc(C)n2nc(C(=O)N/N=C/C=C/c3ccccc3)nc2n1	-45.1%
C=CCCCCc1nc2ccccc2c(=O)n1N	6.28%
O=c1oc(Nc2cccc(Cl)c2)nc2ccccc12	21.4%
COc1ccccc1OCCNC(=O)c1ccc(S(=O)(=O)N(C)C)cc1	-1.21%
O=C(CSc1nnc(-c2cccnc2)n1Cc1ccco1)Nc1cccc(O)c1	-10.5%
Cc1ccc(NC(=O)N/C=C/c2ccco2)c(C)c1	-3.12%
CC1CCCCN1C(=O)COC(=O)c1cc([N+](=O)[O-])ccc1N1CCOCC1 (stereo not shown)	-15.5%
CC(O/N=C/c1ccc(OC(F)F)cc1)C(=O)Nc1cccc(S(=O)(=O)N2CCOCC2)c1 (stereo not shown)	-60.5%
Cc1ccc(CCNC(=O)CS(=O)Cc2nc(-c3ccccc3F)oc2C)cc1 (stereo not shown)	-31.2%
COc1cccc(C(=O)N/N=c2\sc3ccccc3n2C)c1	-4.81%
Brc1ccc(CSc2nccn2-c2ccccc2)cc1	-0.228%
Cc1c(C(=O)Nc2ccc(Cl)cc2)c2ccccn2c1C(=O)c1ccccc1	3.87%
Cc1nn2c(NC(C)C)c3c(nc2c1-c1ccccc1)CCC3	1.99%
Cc1cccc(C=Nc2ccccc2C(N)=O)c1	12.7%

SMILES	hERG current change (%, negative = inhibition) at 10uM
COc1ccc(-n2c(C)c(C)c3c(NCCCO)ncnc32)cc1	-14.3%
COc1ccccc1/C=N/Nc1cc(C)nc(N2CCOCC2)n1	15.5%
CNC(=O)CS(=O)(=O)CC(=O)Nc1cc(OC(C)C)c(Cl)cc1Cl	9.86%
COC(=O)c1cnn(-c2ccccc2)c1/C=N/NC(=S)Nc1ccccc1	9%
Cc1cc(C(=O)OCC(=O)NCc2ccccc2Cl)c(C)o1	19%
Cc1ccc(-c2nn3c(C)nnc3s2)cc1NC(=O)c1cccs1	-20.5%
NC(=O)CCn1nc(-c2ccc(Cl)cc2)c2ccccc2c1=O	-30.9%
COc1c(C)cc(C(=O)C2CCCN(C(=O)CCc3scnc3C)C2)cc1C (stereo not shown)	-21.7%
O=C(NCc1ccco1)/C(=C\c1ccco1)NC(=O)c1ccccc1Cl	-35.1%
CC(OC(=O)CCN1C(=O)C2CC=CCC2C1=O)C(=O)Nc1cccc(C#N)c1 (stereo not shown)	-25.4%
COc1ccc(CNC(=O)C[C@H]2C(=O)N(C3CCCCC3)C[C@@H]2Cc2ccccc2)cc1	-5.71%
COc1ccc(S(=O)(=O)n2nc(-c3cc(OC)c(OC)c(OC)c3)cc2N)cc1OC	-2.63%
CSCCC(NC(=O)COc1ccccc1)C(=O)OCCOc1ccc(C)cc1 (stereo not shown)	-10.7%
COc1ccc(Cc2nnc(NC(=O)CS(=O)(=O)c3ccccc3)s2)cc1OC	15.9%
CCCN1CCC(=NNC(=O)c2ccc(Br)o2)CC1	-7.22%
COc1ccc(C)cc1S(=O)(=O)N1CCN(S(=O)(=O)c2cc(C)ccc2OC)C(C)C1 (stereo not shown)	-14.6%
Cc1noc(C)c1COC(=O)/C=C/c1ccc(Cl)cc1	0.131%
Cc1ccc(N(CC(=O)NCc2ccccn2)S(=O)(=O)c2ccccc2)cc1C	2.05%
COC(=O)c1ccc(COc2ccccc2/C=C/C(=O)c2ccc(OCC(=O)O)cc2)cc1	3.76%
CC1(C)CC(=O)c2ccc(OCc3ccc([N+](=O)[O-])cc3)cc2O1	-57.7%
COc1ccc(C2CC(c3ccc(Br)cc3)=NN2C(=O)CSC2=NCCS2)cc1 (stereo not shown)	2.68%
CCOC(=O)c1c(C)[nH]c(C)c1S(=O)(=O)NCCCc1ccco1	3.28%
